Reference: patent publication US20040265931A1 (TRUSTESS OF COLUMBIA UNIVERSITY IN THE CITY OF NEW YORK, published 2004)

Target: T1, HAUSP (herpesvirus-associated ubiquitin-specific protease), full-length (human, UniProt Q93009 1-1102, 35S-labeled when in vitro translated)
T1 construct: Used for untagged full-length HAUSP: in vitro translated 35S-labeled protein in GST pull-downs, and endogenous HAUSP of H1299, H460 and U2OS cells; also called USP7; human USP7
Assay: affinity chromatography of H1299 nuclear extract; silver-stained SDS-PAGE

binding result: no binding
B1: GST (other)
chain: not shown
notes: also called GST alone; GST column
